Reference: PubChem BioAssay AID504333 (National Center for Advancing Translational Sciences (NCATS), 2011)
The campaign covered roughly 360,000 compounds. About 16,000 (4.4%) were called active. The inconclusive results got no clear call from the source; some entries with a clear call stand among them for comparison. Calls come from the whole dose curve; as a rule, active = well fitted inhibition curve with a large enough effect; inconclusive = small, poorly fitted or top-dose-only effect; inactive = no such curve, though single readings can be large or run the other way. Where the call is inconclusive, the potency comes from a doubtful curve fit. More than one record can exist for a structure, and the calls need not agree.

Target: Bromodomain adjacent to zinc finger domain protein 2B (Homo sapiens) (UniProt Q9UIF8)
UniProt Q9UIF8, sequence (Q9UIF8 whole entry, looked up, the tested form may be a part): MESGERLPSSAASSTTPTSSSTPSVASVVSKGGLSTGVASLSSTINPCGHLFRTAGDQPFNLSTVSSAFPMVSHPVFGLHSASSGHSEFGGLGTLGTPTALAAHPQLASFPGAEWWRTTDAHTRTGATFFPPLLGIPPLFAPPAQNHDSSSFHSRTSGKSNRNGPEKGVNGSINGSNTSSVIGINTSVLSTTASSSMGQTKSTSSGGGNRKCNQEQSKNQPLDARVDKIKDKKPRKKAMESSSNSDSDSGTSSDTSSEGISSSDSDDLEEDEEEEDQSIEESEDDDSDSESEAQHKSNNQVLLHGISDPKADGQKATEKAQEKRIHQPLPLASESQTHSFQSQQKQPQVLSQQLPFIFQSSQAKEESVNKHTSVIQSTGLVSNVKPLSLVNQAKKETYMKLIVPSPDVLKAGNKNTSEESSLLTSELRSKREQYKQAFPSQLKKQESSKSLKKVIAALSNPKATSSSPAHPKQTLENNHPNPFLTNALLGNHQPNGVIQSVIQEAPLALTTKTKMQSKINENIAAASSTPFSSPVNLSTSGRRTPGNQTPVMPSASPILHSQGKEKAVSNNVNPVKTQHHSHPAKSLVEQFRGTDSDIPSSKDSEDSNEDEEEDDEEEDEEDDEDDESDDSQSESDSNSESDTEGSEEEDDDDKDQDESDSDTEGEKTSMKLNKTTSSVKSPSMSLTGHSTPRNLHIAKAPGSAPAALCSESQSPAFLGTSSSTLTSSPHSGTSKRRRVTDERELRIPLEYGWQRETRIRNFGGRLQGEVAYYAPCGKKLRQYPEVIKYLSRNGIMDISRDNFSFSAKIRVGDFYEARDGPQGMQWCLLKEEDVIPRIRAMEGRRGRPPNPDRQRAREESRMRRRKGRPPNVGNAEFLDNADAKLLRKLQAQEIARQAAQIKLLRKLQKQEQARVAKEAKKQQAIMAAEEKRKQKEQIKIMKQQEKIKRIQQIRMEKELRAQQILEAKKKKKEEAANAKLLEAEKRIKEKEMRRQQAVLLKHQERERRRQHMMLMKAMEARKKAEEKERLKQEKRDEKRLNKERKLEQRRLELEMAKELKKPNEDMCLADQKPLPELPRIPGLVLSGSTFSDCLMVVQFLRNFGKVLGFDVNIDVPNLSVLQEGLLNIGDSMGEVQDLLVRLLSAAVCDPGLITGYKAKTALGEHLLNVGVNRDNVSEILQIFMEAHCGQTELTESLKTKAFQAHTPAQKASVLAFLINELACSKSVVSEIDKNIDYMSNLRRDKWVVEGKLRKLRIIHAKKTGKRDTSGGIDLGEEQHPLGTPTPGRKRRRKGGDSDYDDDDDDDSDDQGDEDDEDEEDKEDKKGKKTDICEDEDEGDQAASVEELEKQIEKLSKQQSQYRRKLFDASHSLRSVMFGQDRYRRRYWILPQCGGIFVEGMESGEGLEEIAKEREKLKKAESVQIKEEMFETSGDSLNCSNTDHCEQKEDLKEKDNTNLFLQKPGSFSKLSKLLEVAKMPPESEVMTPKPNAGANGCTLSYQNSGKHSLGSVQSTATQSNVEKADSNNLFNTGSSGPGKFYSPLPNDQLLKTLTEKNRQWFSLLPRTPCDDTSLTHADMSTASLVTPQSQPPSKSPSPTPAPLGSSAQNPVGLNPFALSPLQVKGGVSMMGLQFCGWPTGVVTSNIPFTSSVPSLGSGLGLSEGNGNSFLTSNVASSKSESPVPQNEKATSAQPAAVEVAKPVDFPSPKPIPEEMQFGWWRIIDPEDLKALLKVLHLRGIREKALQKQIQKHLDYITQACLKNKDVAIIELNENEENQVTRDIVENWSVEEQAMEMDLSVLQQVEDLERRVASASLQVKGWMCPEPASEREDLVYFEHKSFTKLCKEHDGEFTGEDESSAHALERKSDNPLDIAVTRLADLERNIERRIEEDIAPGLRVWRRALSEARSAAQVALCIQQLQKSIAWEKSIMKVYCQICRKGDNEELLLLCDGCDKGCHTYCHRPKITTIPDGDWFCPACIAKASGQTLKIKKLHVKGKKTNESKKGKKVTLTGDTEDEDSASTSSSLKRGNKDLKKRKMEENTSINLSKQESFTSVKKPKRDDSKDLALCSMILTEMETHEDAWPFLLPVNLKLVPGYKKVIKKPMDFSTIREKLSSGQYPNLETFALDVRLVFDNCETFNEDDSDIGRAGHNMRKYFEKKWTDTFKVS
Assay: qHTS Assay for Inhibitors of BAZ2B; note: nearly all actives have a fitted effect of over 60% in size
Details: AlphaScreen BAZ2B-H3K14Ac peptide displacement; series mostly up to 114 µM
In short: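 Multi-concentration screen (max 110 uM) measuring displacement of acetylated histone H3 peptide from BAZ2B by AlphaScreen, using 50 nM protein, 50 nM peptide and 10 ug/mL streptavidin donor plus Ni-chelate acceptor beads.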
Potency is the fitted concentration of half-maximal effect; tags give direction and shape of the fitted curve.

SMILES | Potency
O=C(Nc1ccc(Br)cn1)c1coc(=O)c(Br)c1 | inconclusive: 50.1 µM [inhibitor, partial curve]
CCN(C(=O)CCc1nc(-c2ccc(C)cc2)no1)c1cc(C)ccc1C | inactive
O=C(Nc1ccccc1)N1CCc2ccccc2C1 | inactive
O=C(c1cc([N+](=O)[O-])ccc1Cl)N1CCN(c2ccccc2)CC1 | inconclusive: 89.1 µM [inhibitor, single point]
CCOC(=O)c1c(C)[nH]c(C)c1C(=O)COC(=O)c1ccc(OC)cc1 | inconclusive: 70.8 µM [inhibitor, partial curve]
CN(CC(=O)N1CCCCCC1)S(=O)(=O)c1ccc(Br)cc1 | inconclusive: 89.1 µM [inhibitor, single point]
COc1cccc(OCC(O)CN2CCC(Cc3ccccc3)CC2)c1 (centres undefined) | inactive
COc1cc(OC)c2c(-c3ccccc3)cc(=O)oc2c1C(CCN1CCCCC1)c1ccc(N(C)C)cc1 (centres undefined) | active: 15.8 µM
Cc1cc(C(=O)N2CCCC(N3CCN(c4ccc(F)cc4)CC3)C2)c(C)o1 (centres undefined) | inconclusive: 79.4 µM [inhibitor, single point]
O=C(Nc1cccc(NC(=O)c2ccc3c(c2)OCO3)c1)c1ccccc1 | inconclusive: 89.1 µM [inhibitor, single point]
O=C1N(Cc2cccnc2)C[C@@H]2C[C@@H](c3cccc(OCc4ccccc4)c3)N3CCC[C@@]123 | inactive
COc1ccc(-c2cn3ccccc3n2)cc1 | inactive
Cc1ccc(-c2n[nH]c(=S)n2/N=C/c2ccc(C)o2)cc1 | inconclusive: 79.4 µM [inhibitor, single point]
Cc1ccc(N/N=C2\CS(=O)(=O)N(C)c3ccsc32)cc1 | inconclusive: 22.4 µM [inhibitor, full curve]
Cc1ccc(C(Nc2ccccn2)c2ccc3cccnc3c2O)cc1 (centres undefined) | active: 28.2 µM
CCOC(=O)n1c(=O)n(Cc2cccc(C)c2)c2ccccc21 | inactive
Cc1cccc(COc2ccc(/C=C3/C(=O)N(C)C(=S)N3C)cc2)c1 | inactive
COc1ccc(N(Cc2cc3ccccc3[nH]c2=O)S(=O)(=O)c2ccccc2)cc1 | inconclusive: 79.4 µM [inhibitor, single point]
COC(=O)C1C(O)C(C)C(O)C(C)(O)/C=C\C=C(/C)C(=O)Nc2c(C)c(OC(C)=O)c3c(c2O)C(=O)C(C)=C2OCOC(=C23)/C(C)=C/C(C)(O)C(O)C(C)C1O (centres undefined) | inconclusive: 56.2 µM [inhibitor, partial curve]
O=C(NC(=S)N1CCOCC1)c1ccc([N+](=O)[O-])cc1 | inconclusive: 79.4 µM [inhibitor, single point]
COc1ccc(NC(=O)c2ccccc2Sc2ccc(NC(C)=O)nc2)cc1 | inconclusive: 89.1 µM [inhibitor, single point]
CCCCN1C(=O)C(O)=C(C(C)=O)C1c1ccccc1[N+](=O)[O-] (centres undefined) | inconclusive: 89.1 µM [inhibitor, single point]
Cc1ccc(Cn2nc(C)c(NC(=O)c3cc(-c4ccc5c(c4)OCO5)on3)c2C)cc1 | inconclusive: 89.1 µM [inhibitor, single point]

SMILES | Potency
Oc1cc2c(cc1O)CN(C(=S)NCCc1ccc(Cl)cc1)CCC2 | active: 44.7 µM
COc1cc(Cl)c(C)cc1NC(=O)Cc1ccc(OC)c(OC)c1 | inconclusive: 100 µM [inhibitor, single point]
CCCCCC(=O)O[C@]1(C(C)=O)CC[C@H]2[C@@H]3CCC4=CC(=O)CC[C@]4(C)[C@H]3CC[C@@]21C | inconclusive: 79.4 µM [inhibitor, single point]
Nc1c(C(=O)N2CCCCC2)sc(=S)n1-c1ccccc1 | inconclusive: 50.1 µM [inhibitor, single point]
O=[N+]([O-])c1ccc(N2CCSCC2)cc1O | inconclusive: 56.2 µM [inhibitor, partial curve]
COc1ccc(C2/C(=C(\O)c3ccc4c(c3)OCCO4)C(=O)C(=O)N2Cc2ccco2)c(OC)c1 (centres undefined) | inconclusive: 79.4 µM [inhibitor, single point]
CC(=O)c1ccc(NC(=O)c2ccc(NC(=O)c3ccco3)cc2)cc1 | inconclusive: 79.4 µM [inhibitor, partial curve]
O=[N+]([O-])c1ccc(O)c(N=Cc2sc3ccccc3c2O)c1 | active: 14.1 µM
Cc1ccc(-c2nc3ccc(Cl)cn3c2Nc2ccc3c(c2)OCCO3)o1 | inactive
COc1cc(NC(c2ccccc2)c2ccccc2)cc(OC)c1OC | active: 44.7 µM
CC(=O)c1cccc(NC(=S)N2CCCC2)c1 | inconclusive: 0.891 µM [inhibitor, full curve, poor fit]
CCCCOc1ccc(C2=NC(c3ccncc3)=Nc3ccc(Br)cc3N2)cc1 | inconclusive: 25.1 µM [inhibitor, partial curve]
CCCN1CCN(C(=S)Nc2ccc(S(N)(=O)=O)cc2)CC1 | inactive
O=C(c1ccc(-c2ccccc2)cc1)N1CCN(Cc2ccccn2)CC1 | inconclusive: 79.4 µM [inhibitor, single point]
CCN(Cc1ccncc1)C(=O)c1cc(COc2ccc(C)c(C)c2)on1 | inconclusive: 79.4 µM [inhibitor, single point]
COc1cc(OC)cc(C(=O)NCC(=O)OCC(=O)Nc2ncc(Cl)cc2Cl)c1 | inactive
CC(C)(C)OC(=O)N1CCC(c2c(C(=O)NC3CCN(Cc4ccccc4)CC3)cnn2-c2cccc(F)c2)CC1 | inactive
COc1ccc2ccccc2c1CN(C)Cc1ccccc1 | inconclusive: 89.1 µM [inhibitor, single point]
O=[N+]([O-])c1cc(-c2nc(-c3ccccc3)no2)ccc1NCC1CCCO1 (centres undefined) | inconclusive: 79.4 µM [inhibitor, single point]
CCOC(=O)C1CCCN(CCc2ccccc2)C1 (centres undefined) | inconclusive: 89.1 µM [inhibitor, single point]
CCOc1ccccc1NC(=O)CSc1ncnc2c1oc1ccccc12 | inactive
Cc1nc(SC2CC(=O)N(c3ccc([N+](=O)[O-])cc3)C2=O)nc2c1CCCC2 (centres undefined) | inconclusive: 79.4 µM [inhibitor, single point]
COc1ccc(/C=N/Nc2nc(NCc3ccco3)nc(Nc3ccc(OC)cc3)n2)cc1 | inconclusive: 28.2 µM [inhibitor, partial curve]

SMILES | Potency
O=C(COC(=O)c1ccc(Br)o1)Nc1ncc([N+](=O)[O-])s1 | inconclusive: 44.7 µM [inhibitor, partial curve]
Cc1ccc(C(=O)Oc2cc(N)n(S(=O)(=O)c3ccc(C)cc3)n2)cc1 | inconclusive: 56.2 µM [inhibitor, partial curve]
CCCCNC(=O)CCC(=O)NNc1nc2ccccc2c2nc(-c3ccccc3)nn12 | active: 89.1 µM
O=C(Cc1ccc(Cl)cc1)c1c[nH]c(C(=O)NCCCn2ccnc2)c1 | inconclusive: 50.1 µM [inhibitor, partial curve]
COc1ccc(CNC(=S)Nc2ccc3nc(N4CCN(C)CC4)cc(C)c3c2)cc1 | inconclusive: 39.8 µM [inhibitor, partial curve]
CC(=O)c1ccc(N2C(=O)N(Cc3cccc(C(F)(F)F)c3)c3ccccc3S2(=O)=O)cc1 | inactive
CC1CCCC/C1=N\Nc1ccc(S(N)(=O)=O)cc1[N+](=O)[O-] (centres undefined) | inconclusive: 44.7 µM [inhibitor, partial curve]
CC(C)(C)NC(=O)NC(=O)CSc1nnc(-c2ccccc2F)n1N | inactive
COc1cc(/C=N/N2C(=O)CSC2=S)ccc1O | inconclusive: 79.4 µM [inhibitor, single point]
COc1ccccc1NC(=O)N(Cc1ccco1)Cc1cc2cc(C)cc(C)c2[nH]c1=O | inconclusive: 28.2 µM [inhibitor, partial curve]
CCCCN(C(=O)c1ccccc1Br)C1CCS(=O)(=O)C1 (centres undefined) | inactive
CC1(C2CC2)NC(=O)N(CC(=O)Nc2ccccc2C#N)C1=O (centres undefined) | inactive
Cc1cc(NC(=O)CN(C)CCOc2ccccc2)ccc1Br | active: 35.5 µM
Cc1ccc(Nc2c(-c3ccc(C)o3)nc3ncccn23)cc1 | inconclusive: 70.8 µM [inhibitor, single point]
CC(=O)Nc1ccc(S(=O)(=O)N2CCSC2c2ccco2)cc1 (centres undefined) | inconclusive: 89.1 µM [inhibitor, single point]
CN1CCN(C(c2ccccc2Cl)c2sc3nc(-c4ccco4)nn3c2O)CC1 (centres undefined) | inactive
CCOC(=O)N1CCN(C(=S)NC(=O)c2ccc(F)c(F)c2)CC1 | inactive
CCN(C(=O)COC(=O)c1c(NC(C)=O)sc(C)c1C)C1CCS(=O)(=O)C1 (centres undefined) | inconclusive: 89.1 µM [inhibitor, single point]
CCOC(=O)Cn1c(=NC(=O)c2sc3ccccc3c2Cl)sc2cc(S(N)(=O)=O)ccc21 | inconclusive: 89.1 µM [inhibitor, single point]
Cc1ccc(CNC(=O)C2CCCN(S(=O)(=O)c3ccc(F)cc3)C2)cc1 (centres undefined) | inactive
CCOC(=O)C1=C(N)OC2=C(C(=O)CC(C)(C)C2)C1C1CCCCC1 (centres undefined) | inconclusive: 89.1 µM [inhibitor, single point]
O=C(O)c1ccccc1C(=O)c1ccc(Sc2ccc(Cl)cc2)c([N+](=O)[O-])c1 | inconclusive: 44.7 µM [inhibitor, partial curve]
CCN1CCc2nc3sc(C(=O)Nc4cccnc4Cl)c(N)c3cc2C1 | inconclusive: 79.4 µM [inhibitor, single point]
